Source: the supplement of paper PMC11166567
The list shows a part of the results.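 Rule for the calls: active = permutation test q below 0.05 after Benjamini-Hochberg correction; inactive = q of 0.05 or more.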

What follows are compounds tested on U2OS (assay: mean average precision of replicate retrieval against DMSO controls (Cell Painting phenotypic activity) (fraction (0-1)); higher = stronger, more reproducible morphological phenotype distinct from DMSO; extreme values may be limits of the assay). Settings: 48 h; 5 µM.
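Note: cosine similarity of well-level aggregated Cell Painting profiles ranks each compound's replicate wells against DMSO wells, four replicate plates, significance from 100,000 rank shuffles.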

SMILES | mean average precision
O=C(O)c1ccccc1O | inactive: 0.176
CO[C@H]1C=CO[C@@]2(C)Oc3c(C)c(O)c4c(O)c(cc(O)c4c3C2=O)NC(=O)/C(C)=C\C=C/[C@H](C)[C@H](O)[C@@H](C)[C@@H](O)[C@@H](C)[C@H](OC(C)=O)[C@@H]1C | active: 0.489
Nc1ncn([C@@H]2O[C@H](CO)[C@@H](O)[C@H]2O)c(=O)n1 | active: 0.897
OCCn1cc(-c2cnc3nnn(Cc4ccc5ncccc5c4)c3n2)cn1 | inactive: 0.202
C[S+]([O-])c1ccc(-c2nc(-c3ccc(F)cc3)c(-c3ccncc3)[nH]2)cc1 (stereo not given) | active: 1
NC(=O)CC[C@H](N)C(=O)O | inactive: 0.07
OC(CN1CCNCC1)Cn1c2ccc(Br)cc2c2cc(Br)ccc21 (stereo not given) | active: 1
CCOC(=O)c1c2c3c(cccc3[nH]c1=O)C(=O)c1ccccc1-2 | inactive: 0.26
CC(C)CC(=O)Nc1n[nH]c2c1CN(C(=O)C1CCN(C)CC1)C2(C)C | active: 0.998
Nc1ncnc2c1c(-c1cccc(OCc3ccccc3)c1)cn2C1CC(CN2CCCC2)C1 (stereo not given) | active: 1
Cc1[nH]c(/C=C2\C(=O)Nc3ccccc32)c(C)c1CCC(=O)O | active: 0.5
CNC(=O)[C@H](Cc1ccccc1)NC(=O)[C@H](CC(C)C)[C@H](CSc1cccs1)C(=O)NO | active: 1
Nc1nc(F)nc2c1ncn2[C@@H]1O[C@H](COP(=O)(O)O)[C@@H](O)[C@@H]1O | active: 1
CC(=O)SCC(Cc1ccccc1)C(=O)NCC(=O)OCc1ccccc1 (stereo not given) | inactive: 0.171
CCCCCCCCO | active: 0.4
CN(C)CC/C=C1/c2ccccc2COc2ccc(CC(=O)O)cc21 | inactive: 0.111
COc1ccc(Cl)cc1C(=O)NCCc1ccc(S(=O)(=O)NC(=O)NC2CCCCC2)cc1 | inactive: 0.257
C=C[C@H]1CN2CC[C@H]1C[C@@H]2[C@H](O)c1ccnc2ccc(OC)cc12 | active: 0.414

SMILES | mean average precision
CN(C)C(=O)C(CCN1CCC(O)(c2ccc(Cl)cc2)CC1)(c1ccccc1)c1ccccc1 | active: 0.752
CNC(=O)[C@H](Cc1c[nH]c2ccccc12)NC(=O)[C@@H](CC(=O)NO)CC(C)C | active: 0.788
CC(C)[C@H]1c2ccc(F)cc2CC[C@@]1(CCN(C)CCCc1nc2ccccc2[nH]1)OC(=O)C1CC1 | active: 1
COCC(=O)NC/C=C/c1ccc2ncnc(Nc3ccc(Oc4ccc(C)nc4)c(C)c3)c2c1 | active: 1
C(#Cc1nc2ncccc2nc1OCCN1CCCC1)c1ccccc1 | active: 1
C=C[C@H]1CN2CC[C@H]1C[C@@H]2[C@@H](O)c1ccnc2ccc(OC)cc12 | active: 0.951
CC(C)(C)n1nc(-c2ccc(Cl)cc2)c2c(N)ncnc21 | active: 1
CC(C)COCC(CN(Cc1ccccc1)c1ccccc1)N1CCCC1 (stereo not given) | inactive: 0.295
CN(C)c1ccc(O)c2c1C[C@H]1C[C@H]3[C@H](N(C)C)C(=O)C(C(N)=O)C(=O)[C@@]3(O)C(=O)C1C2=O (stereo not given in full) | active: 0.774
O=C(O)/C=C/c1ccc(Cn2ccnc2)cc1 | inactive: 0.289
C/C(=C\c1csc(C)n1)[C@@H]1C[C@@H]2O[C@]2(C)CCC[C@H](C)[C@H](O)[C@@H](C)C(=O)C(C)(C)[C@@H](O)CC(=O)N1 | active: 1
Cc1cc(Cl)ccc1OCCCC(=O)NO | active: 0.392
CCCCOc1cc(CC2CNC(=O)N2)ccc1OC (stereo not given) | inactive: 0.182
O=C1NC(=O)c2cc(Nc3ccc(F)cc3)c(Nc3ccc(F)cc3)cc21 | active: 0.495
O=C1OC(c2ccc(O)cc2)(c2ccc(O)cc2)c2ccccc21 | inactive: 0.166
Cc1cnc(-c2ccccc2C(C)C)nc1NCc1ccc(-n2ccnn2)cc1 | active: 0.569
CCOC(=O)C1=C(C)NC(C)=C(C(=O)OC)C1c1cccc(Cl)c1Cl (stereo not given) | active: 0.39
